Data reported in the supplement of paper PMC11417369.
This is one part of the list.

tested on: PF3D7_0420300 AP2 domain 1 (GST-tagged); test: gcPBM binding intensity (ln(normalized median fluorescence intensity)); higher = stronger DNA binding
Procedure, shortened: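 GST-fused DNA-binding domains of P. falciparum, expressed in E. coli, were applied at about 25 μg on average for 1 h to an Agilent 4 × 180k array of primer-extended double-stranded 36-bp intergenic genomic probes and negative controls. Binding intensity is the highest Masliner-normalised natural-log median intensity across replicate spots of either probe orientation, measured with Alexa488 anti-GST antibody and a 488 nm scan.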

Row | Sequence | gcPBM binding intensity (ln)
1 | TTTTGTGAATTTTAGATTTTTTAATACAAGAATATT [CACACA_negctrl_site606] | 8.85
2 | AAAAAAAAAGGTACTACACACTATTATCAATAGAAA [CACACA_site91] | 9.47
3 | TACTTATTATGAAACACACACCAAAACTACAGAATA [CACACA_site6265] | 9.79
4 | CAAAATAAAAAATTCACACACATATAAATATAAATA [CACACA_site7065] | 9.78
5 | TTTTGAAGAAAATTCTTTTTTTTTTTTTTTTGTAAA [CACACA_negctrl_site102] | 8.47
6 | ATATAATGACAAGTATAAGTATCACAAAGAAATAAA [CACACA_negctrl_site1403] | 9.43
7 | CCACTTTTTGAAGACACACACAAAAAAAAAAAAAAA [CACACA_site2551] | 8.98
8 | ATAACAATTATTTGTCGACACACGTATATGTTATTT [CACACA_site1766] | 9.64
9 | CAAGCTTTTTCCTTTACACACATTAATTATATATAT [CACACA_site1423] | 9.63
10 | CATTTTTCTATATGTGCATGTAAGATAAGAATAATT [TGCATGCA_site107] | 9.06
11 | TCATATAATATTTATATGCACACTTTTCTATATATA [CACACA_site4075] | 9.42
12 | TTTCGTCATTTTGTTTTTAATTCTACAATTTAGTTA [XGTACX_negctrl_site286] | 9.43
13 | AAAATAGCTGTATAGAGTACATATAAATAATGTTGT [XGTACX_site5692] | 9.31
14 | TAAAATAAAAGTGAAACACACAGTATTTTACAACAT [CACACA_site3811] | 9.45
15 | TGCAAAAAATTCCACACACACACACGCATATAAATA [CACACA_site6696] | 10.1
16 | TTTTTAACATTTAAATGTACATGTTACAATTTAAAG [XGTACX_site8789] | 8.88
17 | TACTAAAACCCATACACACACATATATATAGTACCA [CACACA_site3184] | 9.98
18 | ACAGCATAATCATGCTGTACATTATTTTCTTAAGTA [XGTACX_site8456] | 9.03
19 | AGAGACTTAGAAAACACACATACATAAGATAATTTA [CACACA_site2377] | 9.54
20 | ACTTACACATTTATTACACACATAAAGGAAAATTTT [CACACA_site1356] | 9.7
21 | ATATTTAAATGGATCACACATATATATATATATATA [CACACA_site5255] | 9.15
22 | TTAAAAAATAACAAGGTGCAAATAGGTTTATAAAAT | 9.7
23 | CACTAATAGTGGATTACACACATATATATGTATATA [CACACA_site2531] | 9.35
24 | CGCGAAGTAGCATTCACACACAGCAAAATATATATA [CACACA_site3495] | 9.49
25 | AACTATTTTATTATATGTACTTACGAATTTATAAAA [XGTACX_site5262] | 9.03
